# Laboratory results: ChEMBL document CHEMBL4888484, “Replenishing the malaria drug discovery pipeline: Screening and hit evaluation of the MMV Hit Generation Library 1 (HGL1) against asexual blood stage Plasmodium falciparum ,using a nano luciferase reporter read-out” (2022)
# Hit rate of the full screen: of about 150,000 compounds, about 540 (0.36%) showed an effect of 50% or more. The list shows a part of the results.
# System: Plasmodium falciparum
# Assay: Primary screen in NF54 nanoGlo assay, in single point, at 2uM, 72h; a lower Z score goes with more inhibition
# Type: functional, Erythrocyte
# Conditions: timepoint 72 hour
SMILES,% Inhibition,Z score
O=S(=O)(Nc1nc2ccccc2nc1Nc1ccc2c(c1)OCO2)c1ccc(Cl)cc1,-3%,0.41
COc1cc(NC(=O)N[C@H]2CCCc3occc32)ncn1,-7%,0.72
Cc1ccc(CN(CCN2CCOCC2)C[C@H](O)COCc2ccco2)c(C)c1,-6%,0.81
CCNc1ccnc(NCCc2cc(O)nc(C)n2)n1,-4%,0.56
Fc1ccccc1-c1noc(NCCc2ccc(Cl)cc2)n1,-14%,1.24
CC(C)c1cc(C(=O)N(C)C2CCCCC2S(C)(=O)=O)n[nH]1 (centres undefined),-15%,1.77
CC(C)(C)OC(=O)N1CCC[C@H](Cn2ccc3ccccc32)C1,-6%,0.67
CC1(C)CCN1C(=O)c1cc(C2CC2)nc2ccccc12,3%,-0.35
OC[C@H](CN1CCOCC1)Nc1nccs1,0%,0.01
Cc1nc2c(s1)CCC[C@@H]2NC(=O)COCC(F)(F)C(F)F,9%,-1.3
COC(C)(C)c1noc(-c2n[nH]c3ccccc23)n1,-12%,1.64
CCCOCC(=O)N1CCC[C@H](c2cc(N3CCOCC3)nc(C)n2)C1,-5%,0.58
O=C(CN1CCCc2nc(-c3ccncc3)ncc2C1=O)NCCN1CCOCC1,-12%,1.89
CC(=O)NCc1cc2n(n1)CCN([C@H]1CCN(Cc3ccccc3)C1)C2,-4%,0.83
CCc1cc(C(=O)NC[C@H]2CCCN2C2CCCCC2)n(C)n1,-4%,0.8
Cc1nc(NCCCOC(C)C)nc2[nH]ncc12,-16%,2.28
CC[C@H]1CN(C(=O)c2ccc(-c3ccccc3)[nH]2)CCN1CC(F)F,-6%,0.91
C#Cc1cccc(NC(=O)NCc2cn(C(C)(C)C)c(=O)[nH]c2=O)c1,-5%,0.82
CC1(N(C(=O)[C@H]2CCCO2)c2ccccc2)CC1,0%,-0.1
O=C(c1ccc(F)cc1)N1CCc2nc(N3CCCCC3)nc(Oc3ccc(F)c(F)c3)c2C1,-14%,1.39
Nc1[nH]nc(C(=O)N2CCc3n[nH]cc3C2)c1Cl,1%,-0.15

SMILES,% Inhibition,Z score
Cc1nccnc1C(=O)NC[C@H]1CCC[C@@H](CO)C1,2%,-0.29
CCCc1ccc(CN2CCC[C@](C)(C#N)C2)o1,-17%,1.79
COCc1cccc(C(=O)Nc2ccc(-c3nnn[nH]3)cc2)c1,7%,-1.14
Cc1cc(C)nc(-n2cc(C(=O)N(C)c3ccccc3)c(C(C)C)n2)n1,-16%,3.03
Cc1cc(C(=O)NC2CCN(Cc3ccccc3)C(C)C2)c2cnn(C)c2n1 (centres undefined),-11%,1.67
COCc1ccccc1-c1noc(C[C@H]2CNCCS2(=O)=O)n1,-7%,0.87
COc1ccc(-n2ncc(Oc3ccc4c(c3)CCC4)c(Nc3cccc(C(=O)N(C)Cc4ccccc4)c3)c2=O)cc1,6%,-1.09
O=C(NCc1cccnc1-c1ccncc1)NC1CCOCC1,-9%,1.05
CCc1ccc(S(=O)(=O)N[C@@H]2CNC(=O)C2)s1,5%,-0.69
CCNc1nc(C)c(C(=O)N2C[C@H](C(C)C)[C@@H](N(C)C)C2)s1,0%,0.02
CCCCCN(CCO)Cc1noc(Cc2ccccc2)n1,-5%,0.7
CN(C)C[C@]1(O)CCN(c2nc3cccc(F)c3s2)C1,-4%,0.52
N#CC1(NC(=O)CN2CCN(C(=O)C3CCCC3)CC2)CCCC1,-9%,1.03
Cc1nn(C(C)(C)C)c(C)c1[C@@H]1CC(=O)Nc2n[nH]c(C3CCC3)c21,2%,-0.24
CCOc1ccccc1-c1nccn1CCN1CCCC1=O,8%,-1.16
O=C(N[C@H]1CCCc2ccccc21)c1cc2n(n1)CCCN(Cc1ccc(F)cc1)C2=O,-4%,0.37
CCn1ccnc1C1CCCCN1S(=O)(=O)N(C)CC(C)C#N (centres undefined),2%,-0.29
C[C@H](Nc1nc(C(F)(F)F)ns1)c1cccnc1,-8%,0.78
Clc1ccc2c(-c3cccc(CO[C@H]4CCOC4)c3)cnn2c1,-3%,0.43
COc1ccc(CN(C)[C@@H](C)c2ccncn2)cn1,-18%,2.37
Cc1ncccc1C(=O)NCC1(N2CCCC2)CCCC1,-18%,1.75
